Over roughly 33,000 sequences, “E-score (-0.5 to 0.5)” has its median near -0.053; the highest 2% begin near 0.37. Some of the results follow.
These sequences were tested against Hap1 (UniProt P0CE41) (assay: PBM E-score (8-mer binding enrichment) (E-score (-0.5 to 0.5)); higher = stronger / more preferred TF binding; most listed sequences are background and not binding sites). Conditions: protein concentration: 200 nM; construct: GST-DNA-binding domain.
Outline: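 Each ungapped eight-base word and its reverse complement, pooled, received an E-score from the Universal PBM Analysis Suite. Underlying scans, normalised with masliner, recorded fluorescent anti-GST bound to GST-tagged yeast transcription factors. These were applied at about 100-200 nM to universal all-10-mer Agilent arrays double-stranded by primer extension.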

UniProt P0CE41, sequence (P0CE41 whole entry, the tested form may be a part): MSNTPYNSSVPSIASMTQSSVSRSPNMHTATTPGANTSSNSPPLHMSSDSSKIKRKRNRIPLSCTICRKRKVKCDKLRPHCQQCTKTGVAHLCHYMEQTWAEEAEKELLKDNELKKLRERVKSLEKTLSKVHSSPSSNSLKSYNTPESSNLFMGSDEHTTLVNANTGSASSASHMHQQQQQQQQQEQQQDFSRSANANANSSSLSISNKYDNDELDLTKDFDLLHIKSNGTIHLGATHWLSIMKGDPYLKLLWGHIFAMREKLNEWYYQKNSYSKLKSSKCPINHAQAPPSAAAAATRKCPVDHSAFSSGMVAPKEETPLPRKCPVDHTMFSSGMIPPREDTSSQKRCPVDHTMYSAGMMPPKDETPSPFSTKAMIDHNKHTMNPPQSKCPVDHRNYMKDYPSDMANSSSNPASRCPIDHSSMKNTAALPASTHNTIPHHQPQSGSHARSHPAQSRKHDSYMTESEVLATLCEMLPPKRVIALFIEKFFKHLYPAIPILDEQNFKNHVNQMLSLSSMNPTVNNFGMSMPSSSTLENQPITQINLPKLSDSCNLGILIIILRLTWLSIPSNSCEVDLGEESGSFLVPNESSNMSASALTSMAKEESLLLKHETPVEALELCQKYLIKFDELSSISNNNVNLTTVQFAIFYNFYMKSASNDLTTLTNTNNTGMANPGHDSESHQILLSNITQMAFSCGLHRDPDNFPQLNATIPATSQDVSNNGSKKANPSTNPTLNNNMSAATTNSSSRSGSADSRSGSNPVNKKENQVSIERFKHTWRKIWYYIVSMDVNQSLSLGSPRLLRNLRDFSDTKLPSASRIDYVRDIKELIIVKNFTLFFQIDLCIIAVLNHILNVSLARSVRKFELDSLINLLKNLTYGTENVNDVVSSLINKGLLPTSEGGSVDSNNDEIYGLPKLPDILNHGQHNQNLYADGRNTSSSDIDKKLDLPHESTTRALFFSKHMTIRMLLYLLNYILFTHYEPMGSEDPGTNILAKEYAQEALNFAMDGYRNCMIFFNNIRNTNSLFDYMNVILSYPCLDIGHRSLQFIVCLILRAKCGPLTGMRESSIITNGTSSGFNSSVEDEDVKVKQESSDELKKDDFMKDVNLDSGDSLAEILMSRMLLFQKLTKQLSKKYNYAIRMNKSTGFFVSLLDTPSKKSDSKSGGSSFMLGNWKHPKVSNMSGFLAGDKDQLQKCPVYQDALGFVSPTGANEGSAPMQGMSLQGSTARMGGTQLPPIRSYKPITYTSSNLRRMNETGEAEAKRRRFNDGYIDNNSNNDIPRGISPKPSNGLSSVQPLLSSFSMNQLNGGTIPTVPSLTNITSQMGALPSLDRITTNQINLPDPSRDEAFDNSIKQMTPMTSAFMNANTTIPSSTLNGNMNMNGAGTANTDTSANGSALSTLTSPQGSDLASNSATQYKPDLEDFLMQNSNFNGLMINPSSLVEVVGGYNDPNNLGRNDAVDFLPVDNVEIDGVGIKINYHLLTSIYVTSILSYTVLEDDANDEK

Sequence	PBM E-score
GATGGTCA	0.00252
AAATCAGG	-0.227
CCAGAGGA	-0.19
ACACGAGG	-0.144
CCGAACGC	0.311
CCTCCGAG	0.335
TGCAAGAA	-0.184
GAATGGAA	-0.0233
GGATCGGA	0.384
CTTAGATC	-0.0657
CTGAACAA	-0.102
CGAAATCG	0.281
ACGTCGGA	0.256
ACAGCTGA	-0.173
AGAATTAT	0.0541
CGCGCCGC	0.228
CATGGACG	0.039
CTGTGCCA	-0.156
CGCTCCCG	-0.0431
ACCAACCC	-0.105
ACTGCTCC	0.134
AGTCGGGC	0.157
GGAGCTGA	0.0448
AACGCGTG	-0.148
CTTCCTCC	-0.109

Sequence	PBM E-score
AGGTTCAG	-0.1
CTTAAAAA	-0.197
AAGTCACC	-0.118
CTAAGCTA	-0.032
CGCAGCGA	0.027
CGCGCGTC	0.185
ATTGTCGC	-0.00025
ATATGAGG	-0.195
CGAAGCCC	0.102
GGCCACAA	-0.0502
AAGCAGTG	-0.0692
GAAACGGA	0.277
CGCAGGCC	0.0139
CCGGCACG	0.214
GGGTCCCA	-0.0688
CGGCTAAG	0.149
CTCGAGGC	-0.175
AAAGCTAG	-0.14
CCCCGCAG	0.176
ACGAAAAA	-0.167
CCTCTATA	-0.246
ACGGCTAG	-0.114
GGTGACTA	-0.018
CCTGATGC	0.0859
AACCCATT	0.0904

Sequence	PBM E-score
ACTGTATG	-0.0283
CGGCCAGA	0.225
CACGTCAC	-0.125
GGGATCCA	0.146
CGTGTAGA	-0.0941
CAATATAA	0.105
TGCGAGCA	-0.103
CGTACGGC	-0.00145
ATATAACG	0.115
AGGTGACG	-0.117
AAGAGTCG	-0.0788
CCCGAGAA	0.351
ATTGAACA	-0.00279
ATACCCAG	-0.148
GTTAGAGA	-0.34
AATTCCCA	-0.191
CTCTACTC	-0.144
AAACTAGA	-0.198
AGAACTTA	0.0839
CTTTCGAA	-0.0674
ATAGGTAC	-0.0096
AGACCATG	-0.302
ACCTAGGG	-0.126
CGAACAAC	0.122
ATAATACA	0.0148

Sequence	PBM E-score
CGTCAGCC	0.15
GATGAACC	0.0878
GATGGGCC	0.126
ATAGTCCG	0.369
AGTCATAG	-0.203
TAAGAGAA	-0.265
TGAACACA	-0.203
GATGGCTA	-0.0372
AACTTCAC	-0.166
CCCTTTCG	0.169
AGGCTAGC	-0.205
AGTTCTAG	-0.0549
CAGCCAAG	-0.236
AACTGGGG	-0.0566
ATGTAACG	0.0594
AAAGACAC	-0.0224
ATACTACC	0.0678
GAGTTCAC	0.00848
AAAAAGCA	-0.314
TACCAATA	-0.178
AAAGGATG	-0.197
AAAGTCAC	-0.126
CCACATAG	-0.0279
TCACTACA	-0.0802
CCCCCTAA	-0.234

Sequence	PBM E-score
CAGTAAGG	-0.213
CTTAGCGC	0.159
AAACGAAT	-0.133
AGAACGAC	-0.168
ACCGTGCT	-0.22
GGACCGCC	0.138
CGCTCGAC	-0.218
CTCCTGAC	-0.0691
TCGGATCA	0.353
CAGGTATG	-0.00123
AGTATTGG	-0.245
AAACGTAA	-0.179
ATATCACA	-0.238
AGATGGTA	-0.0212
CAAGGGAC	-0.154
CACGGGTA	-0.0714
AGCGTCTG	-0.203
ACCCTTAG	-0.23
TATTCAGA	-0.194
ATCGTTCC	0.0969
CTGCTAAA	0.0489
GCGGGACA	0.132
AGTTACAT	-0.157
CGTGGCGC	0.0338
CCCGGACA	0.39

Sequence	PBM E-score
CTTATGTA	-0.215
ATCCAGCC	0.133
TAACGTAA	-0.102
ACACGCGA	-0.0698
TAGATTCA	-0.188
GTGCGTCA	-0.0789
CAACTAGC	0.0186
CTTTTAAC	0.0176
GTGCCGTA	0.1
GGTACGCA	-0.152
CGGACAGA	0.333
CACGAGAC	-0.188
CCGAACTA	0.324
ATTCAGAG	-0.00668
GTCGGTCA	0.278
ACGCCTAG	-0.223
AAACGGTT	-0.089
CGGGTCAC	0.0515
CGTATCAG	0.00494
AGAATCGA	-0.191
AAAGTCCG	0.446
AGACTGAA	-0.191
CCCGTTCG	0.241
ACCTCCAT	-0.0591
AACTTGGT	-0.119

Sequence	PBM E-score
CCGCCAAC	0.204
GTGAGAAA	0.0981
CCACGGGG	0.105
AAAGAGTT	-0.286
GTTAGAAA	0.0116
AAACAACC	-0.118
GCCGTACA	0.0272
CCCGCATA	0.124
AGAGAGGA	-0.217
ATTTCTGC	0.0483
CTTAAGCA	-0.116
ACCGTTAG	0.11
AGCCAATG	-0.225
AATATGAC	-0.0304
CCTATTAA	-0.123
CTCTCAGA	-0.332
ACTCGTGG	-0.235
CAGATAAC	0.132
GAGGAGGA	-0.303
CCCTGCCG	0.0797
AATTATTG	-0.0617
ACCGGTAA	0.406
GTGTCGTA	-0.162
ACATGGAG	-0.0668
GAGCTCCA	-0.148

Sequence	PBM E-score
ATAATTAA	0.0307
AGCATCAC	-0.209
ACAAGTGT	-0.17
ACGATCTG	-0.144
AGCAGGGC	-0.116
GCACCGCC	0.138
GCATGAAA	-0.228
CGCCCTGA	-0.116
CTGGTATC	-0.056
AAGACATT	-0.0784
GATCGGTA	0.283
ACATTCCT	-0.0932
CATCTCTA	-0.154
AAGAACCG	0.198
GACCGCAA	0.228
GCAACCTA	-0.245
GCGGTTCA	-0.0191
CCCCCAAG	-0.195
AGCCGAAC	0.227
CCAGCACG	-0.13
GCCAAAAA	-0.0668
ATAAACAC	0.0203
CGCCGATC	0.326
TGGGACAA	-0.222
ACGAACAG	-0.11

Sequence	PBM E-score
AACTACAT	-0.196
ACTTCTAT	-0.128
CCTCCAGG	-0.256
CACAAACC	-0.0855
ATGCACGA	-0.0476
CTCAGGAC	-0.0684
TGACTAAA	-0.243
CTAAATAC	-0.0213
CTTGATGA	-0.0237
TGGGCCCA	0.00355
TAACCAAA	-0.07
AAAAGGCT	0.0332
ACTAGGTA	-0.184
CCGACATA	0.256
ATTGAGAA	-0.0261
ACCGTCGA	-0.0899
GGCGTAAA	0.137
ACCTGTCG	0.049
CGTCGAAG	-0.151

— the supplement of paper PMC3334620
